Results published in a compilation of properties of binary mixtures (doi:10.1016/j.molliq.2017.04.129).
The densities may have been worked out from excess volumes.

Experiment: xn = mol fraction of the nth substance listed
Settings: 100 kPa

COCCOCCO + CCCC[n+]1ccn(C)c1.O=S(=O)([O-])C(F)(F)F
mass density [kg/m3]
Settings | x2 = 0 | x2 = 0.1 | x2 = 0.2056 | x2 = 0.3064 | x2 = 0.3986 | x2 = 0.4904 | x2 = 0.5981 | x2 = 0.6945 | x2 = 0.7795 | x2 = 0.9015
298.15 K | 1015.8 | 1066.6 | 1111.4 | 1147.6 | 1176.1 | 1201.1 | – | 1246.8 | 1262.8 | 1283.1
303.15 K | – | 1062.3 | 1107.2 | 1143.4 | 1172 | – | 1222.7 | 1242.8 | – | 1279.1
308.15 K | – | 1058 | 1102.9 | 1139.3 | 1167.9 | 1193 | 1218.6 | 1238.8 | 1254.8 | 1275.2
313.15 K | 1002.5 | 1053.6 | 1098.7 | – | 1163.9 | 1188.9 | – | – | 1250.8 | 1271.2
318.15 K | – | – | – | – | – | 1184.9 | 1210.6 | 1230.9 | 1246.8 | 1267.3
323.15 K | 993.5 | 1045 | 1090.3 | 1126.9 | 1155.7 | 1180.8 | – | 1226.9 | – | 1263.3

CCCC[n+]1ccn(C)c1.O=S(=O)([O-])C(F)(F)F + COCCOCCO
x1 = 1
Settings | mass density [kg/m3]
298.15 K | 1297.7
308.15 K | 1289.8
313.15 K | 1285.8
